This is one part of the list.
T1: UNK ZnF1-6 (called full-length) (human, UniProt Q9C0B0 30-357)
T1 sequence: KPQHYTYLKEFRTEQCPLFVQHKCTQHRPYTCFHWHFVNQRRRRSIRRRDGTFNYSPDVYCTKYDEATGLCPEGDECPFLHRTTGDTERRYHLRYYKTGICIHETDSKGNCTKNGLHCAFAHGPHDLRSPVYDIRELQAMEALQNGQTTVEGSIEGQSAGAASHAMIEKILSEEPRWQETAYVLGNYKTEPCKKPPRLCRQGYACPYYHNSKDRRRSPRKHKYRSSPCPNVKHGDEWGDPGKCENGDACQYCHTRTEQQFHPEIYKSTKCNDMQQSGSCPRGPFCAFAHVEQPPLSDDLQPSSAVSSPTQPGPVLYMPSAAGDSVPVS

B1: chr12:48782793:48782894:-|CDS|ENSG00000174233|msi1|FALSE|unique (ssRNA)
RNA: GGGAGUUCUACAGUCCGACGAUCGCACUGUUGGCCUGUGCCGCCGCCCUGUUCGUGGGGCUCAUGGUGGUGUGUAACCGGCAUAGCUUCCGCCAGGACUCCAUGUGGGUGGUGAGCUACGUGGUGCUGGGCAUCCUGGCGGCACAACAGAGGAUUGAGCAUCA
B2: ENSG00000241258:stop:overlap|stop_codon|ENSG00000241258|stop_codon|NA|stop_codon (ssRNA)
RNA: GGGAGUUCUACAGUCCGACGAUCAGGCUGAGCAGAAGAAGAAUACAAACAGCAAUGUGGCAAUGGACGAAGAGGACCCAGCAUAGAAGAGCACAGCUGGCCCCGGCGUUUCAUGAAGUCAGAAGGCCUGGCAGCCAUUUCCUGCAACAGAGGAUUGAGCAUCA
B3: ENSG00000124766:be:win_3301|3pUTR|ENSG00000124766|bound_else_gene|NA|bound_elsewhere_windowed (ssRNA)
RNA: GGGAGUUCUACAGUCCGACGAUCAAUCUGCAGGCUUCUUAAAGUGACAGUAUCCCUUAACCUGCCACCAGUGUCCACCCUCCGGCCCCCGUCUUGUAAAAAGGGGAGGAGAAUUAGCCAAACACUGUAAGCUUUUAAGAAAAACAACAGAGGAUUGAGCAUCA
B4: chr17:67340809:67340863:-|CDS_3pUTR|ENSG00000197170|msi1_unk|total|mutant (ssRNA)
RNA: GGGAGUUCUACAGUCCGACGAUCACAAAACUACGCAUCUCACCGCCAAAGAGGAGAUGAUACAUAAUCUACAAUAAGGGUCUCCGUGCUUCCGAAAAAAGUUAAAAUUGGAAGUCAUUAAAAAAAGACUGUUAUAAUGGUGUACAACAGAGGAUUGAGCAUCA
B5: chr21:32314052:32314153:-|3pUTR|ENSG00000142207|msi1|FALSE|unique (ssRNA)
RNA: GGGAGUUCUACAGUCCGACGAUCCAUCUCAAAAAAAUAAAAAAAUAAAGUUUGUUUUUCUAUAAAAAGUCAUAACAAAGUAUUAGUAUGACUUUUUGAAUAAGUUAAUUUCUGCCAGUGUUUAAUUAUUUUAUUAAAGAAAAGCAACAGAGGAUUGAGCAUCA
B6: chr5:78476397:78476521:+|3pUTR|ENSG00000085365|msi1|total|mutant (ssRNA)
RNA: GGGAGUUCUACAGUCCGACGAUCAUAUAAGAAGUUUAUAUAAUAUGCAGUACAUUAUCCAAAAGAGAAGGCCGUUAAUGCAGCCGAAAGCCGUGGUAAUAAUUCCUUUUUAAAAAAAUUUCGGCCGUCAUACCGUAACAUUUUCAACAGAGGAUUGAGCAUCA
B7: ENSG00000067715:stop:overlap|stop_codon|ENSG00000067715|stop_codon|NA|stop_codon (ssRNA)
RNA: GGGAGUUCUACAGUCCGACGAUCAGGAGAAGUUUAUGAAUGAGUUGCAUAAAAUUCCAUUUCAAAGGAAAGAGAGUACCAAUUAGACAAGGGAAGAAGAUGAGAGACUGCCUGAACAGCAUCACUUUUGUAAACUGAGAGUUCCAACAGAGGAUUGAGCAUCA
B8: ENSG00000127483:stop:overlap|stop_codon|ENSG00000127483|stop_codon|NA|stop_codon (ssRNA)
RNA: GGGAGUUCUACAGUCCGACGAUCCCAAAAAGGAGAGAGCUGAUAGUAUUCAUUCCACUCUUUUCAUAAUUGGUCAGAACAGUUAGAAAUUGCUUUUAACUAUAGUCAUGCAUUGCUUAACAAUGGGUAUACAUUCUGAGAGAUCAACAGAGGAUUGAGCAUCA
B9: chr5:16781720:16781826:-|CDS|ENSG00000145555|unk|FALSE|bound_elsewhere (ssRNA)
RNA: GGGAGUUCUACAGUCCGACGAUCCUUCACAGCCCCAUCAUGGAAGCUUUCGGCAAUGCGAAGACCGUGUACAACAACAACUCUAGUCGCUUUGGGAAGUUUGUUCAGCUGAACAUCUGUCAGAAAGGAAAUAUUCAGGGCGGGCAACAGAGGAUUGAGCAUCA
B10: ENSG00000070961:be:win_551|CDS|ENSG00000070961|bound_else_gene|NA|bound_elsewhere_windowed (ssRNA)
RNA: GGGAGUUCUACAGUCCGACGAUCUGCAGAGCCGAAUUGAACAAGAACAGAAGUUCACUGUCAUCAGGGGUGGUCAGGUCAUUCAGAUACCUGUAGCUGACAUUACUGUUGGAGAUAUUGCUCAAGUGAAAUAUGGUGAUCUUCCAACAGAGGAUUGAGCAUCA
B11: chr5:159158860:159158961:-|CDS|ENSG00000145860|msi1|FALSE|bound_elsewhere (ssRNA)
RNA: GGGAGUUCUACAGUCCGACGAUCCCAGGAGACCUGCCCUCUGUGCCACUGCCAUCUGAAAAACUCCUCCCAGCUUCCAGGAUUAGGAACUGAGCCAGUUCUACAGCCUCAUGCUGGAGCUGAGCAAAACGUCAUGUUUCAGGACAACAGAGGAUUGAGCAUCA
B12: chr3:69105919:69106020:+|3pUTR|ENSG00000144746|msi1|total|mutant (ssRNA)
RNA: GGGAGUUCUACAGUCCGACGAUCGUGCUGCUUCUGAUUUUUCUUGCAUUUUAAAUUCUCAGCCAACCUACAGCCAUGAUCUUCCGCACAGUGAUAUCACCAUGACUUCACAGACAUGGUCCCGAAUCUGUACCCUUACCCACACAACAGAGGAUUGAGCAUCA
B13: ENSG00000169057:stop:overlap|stop_codon|ENSG00000169057|stop_codon|NA|stop_codon (ssRNA)
RNA: GGGAGUUCUACAGUCCGACGAUCUCAAGCCUGUCGUUCCAGGACCCAGGAGGGAGAAGCAGCUGCCAGGGGAAGUCUCUUCGUAGGCGGAGGUCAGGAGUCCAAGAGGAGUGAGCAGAGUCACAGAAGCCUCUUAAAGCCUCUCAACAGAGGAUUGAGCAUCA
B14: chr4:75597091:75597192:-|CDS|ENSG00000138769|unk|FALSE|unique (ssRNA)
RNA: GGGAGUUCUACAGUCCGACGAUCUAUAAACUAUUUAAAAUAAAAGGCUCAAAAAUUGAUGGAGAAAAAGCUGAAAAAGGCAAUAGAGCUUCAAAUGCCAGCUGUCUCCAUGACAGUAGGACAAGCCACAACAAAAUAGUGCCUCAACAGAGGAUUGAGCAUCA
B15: ENSG00000174437:stop:overlap|stop_codon|ENSG00000174437|stop_codon|NA|stop_codon (ssRNA)
RNA: GGGAGUUCUACAGUCCGACGAUCAUGAGACGCUCAAGUUUGUGGCCCGCAACUACCUGGAACCUGUUCUUAGCUCAGAACUUUAGUUGUACUCUGCUUGAGGGGAAGAAGGCUCCUGCUCUGCUGUCAAUACUGGAGUAACCGCAACAGAGGAUUGAGCAUCA
B16: chr7:124031896:124032004:-|CDS|ENSG00000234224|unk|FALSE|unique (ssRNA)
RNA: GGGAGUUCUACAGUCCGACGAUCUACCCGCUCAAUUUUAUGGGCCUCAUCACCCUGAUGUAUUUACCUGGCUGGAUAUUCCUUAGUGUGUACCAGGACCUAAUUUCCAACGUGUUGUGGAGGGUGCAGUACGUACCAGCUAACCAACAGAGGAUUGAGCAUCA
B17: chr4:54297753:54297953:+|3pUTR|ENSG00000134853|msi1|total|mutant (ssRNA)
RNA: GGGAGUUCUACAGUCCGACGAUCUUUUUAUGAUGACAAUCAAAGCCGGCCUGAGAAACACUAUUUGUGACUUUUUAAACGAUCCGUGAUGUCCUUAAAAUGUGGUCUGCCAAUCUGUACAAAAUGGUCCUAUUUUUGUGAAGACAACAGAGGAUUGAGCAUCA
B18: chr16:18841627:18841728:-|CDS|ENSG00000157106|msi1|total|mutant (ssRNA)
RNA: GGGAGUUCUACAGUCCGACGAUCUACAAUUAAUCGCCAAGAAACACCCCGGUUCCAUGCUCGACACUAUUCUGUAACACCACCCGGAACAAGAUCAGGACUAAUCCAGUGGGCCGAUGGAGCCACACCCUUAUUUGGUCUUUACAACAGAGGAUUGAGCAUCA
B19: chr22:21448335:21448436:+|3pUTR|ENSG00000169635|unk|FALSE|bound_elsewhere (ssRNA)
RNA: GGGAGUUCUACAGUCCGACGAUCGCAGUCCUGGCCCCCGGCCACUGUCUCGGGGCCCACCUCUCGCCCCUCAUCUUGGUAAUUAGCCAGCCUCAGAUACUUCUGUGGGCCCUGAAGUGGGCUCUCAAGGUCAGACCAAGGUUGCAACAGAGGAUUGAGCAUCA
B20: chr7:108502517:108502634:-|CDS|ENSG00000135241|unk|total|mutant (ssRNA)
RNA: GGGAGUUCUACAGUCCGACGAUCAUUAUUCCAUAUUUAUUACGACUGAGACAAAUUAAGGAUGAAACUCUUCAGGCUGCAGUCCGAGAAAUUUUGGCCCUAAUUGGCUAUGUGGAUCCAGUGAAAGGGAGAGGAAUCCGAAUUCAACAGAGGAUUGAGCAUCA
B21: chr9:128633378:128633479:+|3pUTR|ENSG00000197694|msi1|total|mutant (ssRNA)
RNA: GGGAGUUCUACAGUCCGACGAUCCUUGCUGCAUGUCCGCUCCUCUGUGUGCUCUCACUUUCCACUGUAACCUUAAGCCUGCUCCGCUUGGAAUAAGACUCCGGAGAAAAUGGUGCUUCACUAACCCGCUUCCGGUCCAGUCACCAACAGAGGAUUGAGCAUCA
B22: chr5:6668475:6668576:+|3pUTR|ENSG00000145545|unk|FALSE|unique (ssRNA)
RNA: GGGAGUUCUACAGUCCGACGAUCAUUUUUUCUAAUUUCAAAUUUACCUCUUUUGGCUAUGUCUUGCCAAGUGUGUAUGAGACUAGACUUUACAACUGUCUUUGAUGGCAUUUUCAGAACAAUAAAUGUCACAAUCCCUUCUAUCAACAGAGGAUUGAGCAUCA

Molecular target: T1, UNK ZnF1-6 (called full-length)
Test: nsRBNS (natural sequence RNA bind-n-seq); RBNS binding buffer (assumed for nsRBNS): 25 mM Tris pH 7.5, 150 mM KCl, 3 mM MgCl2, 0.01% Triton X-100, 500 ug/ml BSA, 20 U/ml SUPERase-In, 4 C; UNK is unkempt and MSI1 is Musashi-1; names of the RNAs are library labels; protein concentration not given here; high values mean tight binding

Binder | binding signal
B1 | 0.836 enrichment R
B2 | 0.646 enrichment R
B3 | 0.742 enrichment R
B4 | 0.259 enrichment R
B5 | 0.942 enrichment R
B6 | 0.561 enrichment R
B7 | 0.713 enrichment R
B8 | 0.638 enrichment R
B9 | 0.608 enrichment R
B10 | 0.514 enrichment R
B11 | 0.594 enrichment R
B12 | 0.514 enrichment R
B13 | 1.39 enrichment R
B14 | 0.593 enrichment R
B15 | 0.281 enrichment R
B16 | 0.648 enrichment R
B17 | 0.387 enrichment R
B18 | 0.64 enrichment R
B19 | 0.765 enrichment R
B20 | 0.74 enrichment R
B21 | 0.609 enrichment R
B22 | 0.488 enrichment R

— paper PMC12136788
